Laboratory results taken from US9695463B2, “DNA 5-methyl cytosine demethylation activity of vertebrate DNA methyltransferases” (Academia Sinica, priority 2012, dated 2017).

Biological target: T1, recombinant mouse DNMT3B (Mus musculus, UniProt O88509)
T1 construct: purchased BPS Bioscience; host or cells: recombinant baculovirus-infected Sf9 insect cells
Experiment: Effect of Ca2+, DTT, SAM and H2O2 on the DNA demethylation activity of recombinant DNMT3B (hydrolysis-TLC assay)
Type: biochemical
Conditions: 37°C, 4 h; for effect on the extent of conversion of 5-mC to C by DNMT3B (in words): 40 nM recombinant DNMT3B, buffer B, 1 mM CaCl2, 5 mM DTT, 160 μM SAM, H2O2 up to 10 mM
Protocol: M, mock control without incubation.
FIGS. 3A-B show the effects of a reducing condition and SAM on the DNA demethylation and methylation activities of DNMT3B. […] After incubation at 37° C. for 4 h, the DNA products were analyzed by the hydrolysis-TLC assay. The results are quantitatively presented in the histogram. […] After incubation at 37° C. for 4 h, the extents of C methylation of the DNAs from the different reactions were determined by hydrolysis-TLC assay and quantitatively compared in the histogram. Error bars indicate S.D.
Rx, reactions. […] M, mock control without incubation.

SMILES | effect on the extent of conversion of 5-mC to C by DNMT3B (in words) | Ca2+ concentration at which the DNA demethylation activity of DNMT3B is highest (40 nM recombinant mouse DNMT3B, 0, 10 μM, 100 μM, 1 mM, 5 mM, 10 mM CaCl2)
O[C@H](CS)[C@H](O)CS (racemic) [DTT, dithiothreitol] | greatly decreased | 
C[S+](CC[C@H](N)C(=O)O)C[C@H]1O[C@@H](n2cnc3c(N)ncnc32)[C@H](O)[C@@H]1O (some centres unmarked) [SAM, S-adenosylmethionine] | greatly reduced | 
OO [H2O2] | did not affect | 
[Ca+2].[Cl-].[Cl-] [Ca^2+, CaCl2] | significant DNA demethylation activity only in the presence of Ca^2+ | 1 mM
